{"source": "the supplement of paper PMC11417369", "note": "The list shows a part of the results."}
{"system": "PF3D7_0420300 AP2 domain 1 (GST-tagged)", "assay": "gcPBM binding intensity (ln(normalized median fluorescence intensity)); higher = stronger DNA binding", "how_it_was_run": "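GST-tagged P. falciparum DNA-binding domains produced in E. coli were incubated for 1 h on an Agilent 4 × 180k array of primer-extended double-stranded 36-bp intergenic genomic probes with negative controls. Binding intensity is the highest Masliner-normalised natural-log median intensity across replicate spots of either probe orientation, with bound protein detected by Alexa488 anti-GST antibody at 488 nm.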"}
{"sequence": "TTATTATGCTGAGTACGTACTTATATAAGAATAGCA [XGTACX_site2955]", "gcPBM binding intensity (ln)": 9.08}
{"sequence": "AAATTATTTCCGTGTACACATAAATATATATTTTAT [CACACA_site5121]", "gcPBM binding intensity (ln)": 9.45}
{"sequence": "CAATTACAAAAGAAATGTACTCGTAATAAATAAATA [XGTACX_site1126]", "gcPBM binding intensity (ln)": 9.29}
{"sequence": "TGAAATTTTTATACATGTACAAAATTAAATATAACA [XGTACX_site7324]", "gcPBM binding intensity (ln)": 9.13}
{"sequence": "TATAATAATAATAATAGTACGTATTATTAAAAAACT [XGTACX_site10]", "gcPBM binding intensity (ln)": 9.29}
{"sequence": "ATATTACACATATATGCACACATTGTAGTTATTTAT [CACACA_site8843]", "gcPBM binding intensity (ln)": 9.7}
{"sequence": "TAATAAGTAAAAAAATGTACCCGTTAGGTTTAATAA [XGTACX_site638]", "gcPBM binding intensity (ln)": 9.14}
{"sequence": "AAAATAATATTTAATACACACACCAGTTCTGCAAAT [CACACA_site3736]", "gcPBM binding intensity (ln)": 9.82}
{"sequence": "TTTTTTTATTTTATTTTATTATCTTATGTATCACAA [CACACA_negctrl_site1755]", "gcPBM binding intensity (ln)": 9.22}
{"sequence": "TTTTTCTCTCTCTTATTATACAACAACAAAAAAAAA [GTGCAC_negctrl_site178]", "gcPBM binding intensity (ln)": 8.79}
{"sequence": "AGAAATATATATATATATATATGTGACAATATTTGT [TGCATGCA_negctrl_site282]", "gcPBM binding intensity (ln)": 9.45}
{"sequence": "ACAAAAAGGTAATTTACACACTGCATATAGGAATAA [CACACA_site2929]", "gcPBM binding intensity (ln)": 9.57}
{"sequence": "TTTATATTCTTAAGTGTGCACTATATATATATATAT [GTGCAC_site9719]", "gcPBM binding intensity (ln)": 9.33}
{"sequence": "ACCCTATATGTAACTACACACCGCATATTGTTTACT [CACACA_site3071]", "gcPBM binding intensity (ln)": 10}
{"sequence": "TTTGTTCATATTATTGTGCACTTAAACGTAACAAAA [GTGCAC_site9505]", "gcPBM binding intensity (ln)": 9.08}
{"sequence": "ATGTATGTATATACTTGTACATATTCATATTAGTAT [XGTACX_site1118]", "gcPBM binding intensity (ln)": 9.18}
{"sequence": "AATGTAGCATTTTATCGTACACTTAATACAAAAAAG [XGTACX_site6214]", "gcPBM binding intensity (ln)": 8.97}
{"sequence": "GATATTGAGAAAGGGTGTACAAGATATTATACTATA [XGTACX_site3598]", "gcPBM binding intensity (ln)": 9.26}
{"sequence": "AATAGAAAAAAATAAGTGCATTTTGGTATTCATCAT [GTGCAC_site9614]", "gcPBM binding intensity (ln)": 9.31}
{"sequence": "AAATTTATATTCATTTGTACGTAATTTAAATTATAC [XGTACX_site5870]", "gcPBM binding intensity (ln)": 9.15}
{"sequence": "ACATAAATAATAAAAACACACATATGTACATATATA [CACACA_site1913]", "gcPBM binding intensity (ln)": 9.75}
{"sequence": "TTTTATGTAATTATTTGTACATATGCCTCTTAAACT [XGTACX_site748]", "gcPBM binding intensity (ln)": 9.19}
{"sequence": "AAAAAAAAAAAGCACACACACATATGTGTATTTATA [CACACA_site6578]", "gcPBM binding intensity (ln)": 9.93}
{"sequence": "ACAAAATATACAAAATGTACAAAATTTACAAAATGT [XGTACX_site3544]", "gcPBM binding intensity (ln)": 9.32}
{"sequence": "TACTAGCAAATACATACACACACACCCATATACATA [CACACA_site9163]", "gcPBM binding intensity (ln)": 10.1}
{"sequence": "ATGCACTCATTGTGCACACGCATATTACGAAAAGAA [CACACA_site2638]", "gcPBM binding intensity (ln)": 9.24}
{"sequence": "AAAAAAAAAAAAAACACACACACACCCATACAAAAT [CACACA_site1446]", "gcPBM binding intensity (ln)": 10.1}
{"sequence": "AATAAATAAAAAACATGTACAAATATAATATAGCAT [XGTACX_site6429]", "gcPBM binding intensity (ln)": 9.82}
{"sequence": "AAGATTTGAAAAAATACACACAATAAAAAAATAAAA [CACACA_site3281]", "gcPBM binding intensity (ln)": 9.67}
{"sequence": "TATATATATATGTGTATACACACCTGATAAAGGTAT [CACACA_site2653]", "gcPBM binding intensity (ln)": 9.42}
{"sequence": "TATACATATGAAAATACACACATACATACCTATATA [CACACA_site6888]", "gcPBM binding intensity (ln)": 9.68}
{"sequence": "TATTTAACACCTTATACACACTTTCTTCCTTTTTTA [CACACA_site4590]", "gcPBM binding intensity (ln)": 9.65}
{"sequence": "TAATTGTACGCCAATACACACAGAATTATAATGTAG [CACACA_site6201]", "gcPBM binding intensity (ln)": 9.54}
{"sequence": "TAAAATATTACGTGTACACATAAATAAAAATAAAAA [CACACA_site5066]", "gcPBM binding intensity (ln)": 9.26}
{"sequence": "TTTTATATTCCACAAAAAATTATATAATAATAGAAC [CACACA_negctrl_site1741]", "gcPBM binding intensity (ln)": 9.18}
{"sequence": "GTAATATATACAAAATGTACAAAACAATAACATGAT [XGTACX_site8575]", "gcPBM binding intensity (ln)": 9.63}
{"sequence": "ATCCAAACAAATAAAACATGCATAATATATATATAT [TGCATGCA_site766]", "gcPBM binding intensity (ln)": 9.62}
{"sequence": "CTCAAATAATTTTTTACACACATTATTTGAAATAAG [CACACA_site1290]", "gcPBM binding intensity (ln)": 9.37}
{"sequence": "ATGCTTTTATAAATAATTAAAAAAAAAAAAAAAAAA [TGCATGCA_negctrl_site533]", "gcPBM binding intensity (ln)": 8.33}
{"sequence": "TTTTTTTTTAATATTTGTACACAACATGAAACATTT [XGTACX_site473]", "gcPBM binding intensity (ln)": 8.97}
{"sequence": "AAAAGGAATATAATCATTCAAAAATATAATATATAT [GTGCAC_negctrl_site551]", "gcPBM binding intensity (ln)": 9.17}
{"sequence": "TTACATAATTTCTGCTGTACCAATTTTGAGAAGTTG [XGTACX_site4023]", "gcPBM binding intensity (ln)": 9.16}
{"sequence": "ATGTAAATATATATATGTACTAATTAGTAGTTTACG [XGTACX_site6271]", "gcPBM binding intensity (ln)": 9.32}
{"sequence": "TCCTTATTACTTTTTTAAGTCGTAATGAAAGAAAAA [CACACA_negctrl_site1497]", "gcPBM binding intensity (ln)": 8.62}
